The record followed here is paper PMC11151825 (RSC Chemical Biology, 2024).

Bridge positions count the residues as written; N and C are the ends. Ends that are not written are not given here. Peptide text beside a SMILES is read from it.

The target in assay [1] is T1, κ-opioid receptor (KOR) (Mus musculus, UniProt P33534). Description: cell-based. The assay is classed as cell-based. To be noted: for Emax: HEK293.
In assay [2] the target is T1, κ-opioid receptor (KOR). Description: biochemical. On the procedure: Section 6: KOR pharmacology
HEK293 cells were cultured in Dulbecco’s modified Eagle medium (DMEM) containing 10% fetal bovine serum and 50
U/mL penicillin and streptomycin and were grown at 37 °C and 5% CO2. The HEK293 cell line stably expressing mouse
KOR-EGFP was generated by geneticin disulfate (0.8 mg/mL of G418, ROTH, Austria) selection and flow cytometry to
select cells for stable cell line propagation. Positive clones were identified by radioligand binding studies as previously
Radioligand Competition Binding Assays
Membranes were prepared from HEK293 cells stably expressing the KOR as previously described.2 Radioligand binding
studies were carried out in duplicate using standard binding buffer containing 50 mM Tris−HCl (pH 7.4), 10 mM MgCl2,
and 0.1% BSA. For competition binding, 75 μL each of [3H]-diprenorphine (1 nM final), peptide solution (4×), and
membrane preparations (7 μg/assay) was incubated in the standard binding buffer, and binding reactions were
incubated for 1 h at 37 °C. Termination of reactions was performed by rapid filtration onto a 0.1% polyethylenimine-
soaked GF/C glass fiber filter with a Skatron cell harvester.
Functional cAMP assay was conducted in triplicate using HEK293 cells stably expressing the mouse KOR according to the
manufacturer’s protocol with slight modifications. Briefly, 2000 cells per 5 μL per well were seeded into a white 384-
well plate and incubated with 5 μL of logarithmically spaced concentrations of peptide solutions prepared (2×) in 1×
stimulation buffer and forskolin (10 μM final). The reaction mixture was incubated at 37 °C for 30 min followed by
addition of Europium cryptate-labeled cAMP and cAMP d2-labeled antibodies (5 μL of each). After incubation for 1 h at
room temperature, cAMP quantification was measured by homogenous time-resolved fluorescence resonance energy
transfer on a Flexstation 3 (Molecular Devices, San Jose, USA) using a ratio of 665/620 nm.

Assay [3] deals with trypsin from bovine pancreas (Bos taurus, UniProt P00760). To be noted: for trypsin inhibition (in words): pH 7.8, 37 °C.

T1 sequence (P33534 whole entry): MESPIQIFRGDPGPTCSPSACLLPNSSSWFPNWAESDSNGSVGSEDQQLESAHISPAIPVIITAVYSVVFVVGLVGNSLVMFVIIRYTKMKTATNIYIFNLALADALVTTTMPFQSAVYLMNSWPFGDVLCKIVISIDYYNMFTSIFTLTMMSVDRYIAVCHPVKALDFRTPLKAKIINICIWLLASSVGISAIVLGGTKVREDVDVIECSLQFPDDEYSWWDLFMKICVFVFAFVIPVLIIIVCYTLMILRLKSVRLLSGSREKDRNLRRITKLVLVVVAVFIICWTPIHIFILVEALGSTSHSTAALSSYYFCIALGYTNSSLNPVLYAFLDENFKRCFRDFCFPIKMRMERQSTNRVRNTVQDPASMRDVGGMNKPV

For the compound `CC[C@H](C)[C@H](NC(=O)[C@H](CCCNC(=N)N)NC(=O)[C@H](CCCNC(=N)N)NC(=O)[C@H](CC(C)C)NC(=O)[C@H](Cc1ccccc1)NC(=O)CNC(=O)CNC(=O)[C@@H](N)Cc1ccc(O)cc1)C(=O)N[C@@H](CCCNC(=N)N)C(=O)N1CCC[C@H]1C(=O)N[C@@H](CCCCN)C(=O)N[C@@H](CC(C)C)C(=O)N[C@@H](CCCCN)C(=O)O` [Dynorphin A 1–13, dynorphin A (1–13), reference compound], the Emax at κ-opioid receptor (KOR) [1] is 100%.

`CC[C@H](C)[C@@H]1NC(=O)[C@H](CCCNC(=N)N)NC(=O)[C@H](CCCNC(=N)N)NC(=O)[C@H](CC(C)C)NC(=O)[C@H](Cc2ccccc2)NC(=O)CNC(=O)CNC(=O)[C@H](Cc2ccc(O)cc2)NC(=O)[C@H](CC(N)=O)NC(=O)[C@@H]2CSSC[C@@H]3NC(=O)[C@H](C(C)C)NC(=O)[C@@H]4CCCN4C(=O)[C@H](Cc4c[nH]c5ccccc45)NC(=O)[C@H](CO)NC(=O)[C@@H]4CSSC[C@H](NC(=O)[C@H]([C@@H](C)O)NC(=O)[C@H](CCC(N)=O)NC(=O)CNC(=O)[C@H](CSSC[C@H](NC(=O)CNC(=O)[C@H](CCCCN)NC(=O)[C@H](CC(C)C)NC(=O)[C@H](CCCCN)NC(=O)[C@@H]5CCCN5C(=O)[C@H](CCCNC(=N)N)NC1=O)C(=O)N[C@@H]([C@@H](C)O)C(=O)N4)NC(=O)[C@H](C(C)C)NC(=O)[C@@H]1CCCN1C(=O)[C@H](CC(C)C)NC(=O)CNC(=O)[C@H](CC(N)=O)NC(=O)[C@H](CCCNC(=N)N)NC(=O)[C@H]([C@@H](C)O)NC3=O)C(=O)N[C@@H](C(C)C)C(=O)NCC(=O)NCC(=O)N[C@@H]([C@@H](C)O)C(=O)N2` [ΔL3[E3Q]kB1-dynA] (cyclo(CGQTCVGGTCNYGGFLRRIRPKLKGCTCSWPVCTRNGLPV); disulfide 1-26, 5-28, 10-33 (inferred); ring closure inferred) registered a Ki on κ-opioid receptor (KOR) [2] of 0.0014 ± 0.0009 µM. Also, on κ-opioid receptor (KOR) [1], the EC50 is 0.028 ± 0.0098 µM, the “agonist activity at the κ-opioid receptor (in words)” value (“agonist activity” for short) was “full agonist activity” and the Emax is 109 ± 27.4%.

As to `CC[C@H](C)[C@@H]1NC(=O)[C@H](CCCNC(=N)N)NC(=O)[C@H](CCCNC(=N)N)NC(=O)[C@H](CC(C)C)NC(=O)[C@H](Cc2ccccc2)NC(=O)CNC(=O)CNC(=O)[C@H](Cc2ccc(O)cc2)NC(=O)[C@H](CO)NC(=O)[C@@H]2CSSC[C@@H]3NC(=O)[C@H]([C@@H](C)O)NC(=O)[C@H](CCC(N)=O)NC(=O)CNC(=O)[C@@H]4CSSC[C@H](NC(=O)CNC(=O)[C@@H]5CCCN5C(=O)[C@H]([C@@H](C)O)NC(=O)[C@H](CC(N)=O)NC(=O)[C@H](CSSC[C@H](NC(=O)[C@H](C(C)C)NC(=O)[C@H](CCCCN)NC(=O)[C@H](CC(C)C)NC(=O)[C@H](CCCCN)NC(=O)[C@@H]5CCCN5C(=O)[C@H](CCCNC(=N)N)NC1=O)C(=O)N[C@@H]([C@@H](C)O)C(=O)N[C@@H](CCCNC(=N)N)C(=O)N[C@@H](CC(N)=O)C(=O)NCC(=O)N[C@@H](CC(C)C)C(=O)N1CCC[C@H]1C(=O)N[C@@H](C(C)C)C(=O)N4)NC(=O)[C@H]([C@@H](C)O)NC(=O)CNC(=O)CNC(=O)[C@H](C(C)C)NC3=O)C(=O)N[C@@H]([C@@H](C)O)C(=O)N2` [ΔL5[E3Q]kB1-dynA] (cyclo(CGQTCVGGTCNTPGCTCSYGGFLRRIRPKLKVCTRNGLPV); disulfide 1-15, 5-17, 10-33 (inferred); ring closure inferred), the Ki at κ-opioid receptor (KOR) [2] came out at 0.0032 ± 0.0017 µM. Besides, on κ-opioid receptor (KOR) [1], the EC50 is 0.112 ± 0.0682 µM, the “agonist activity” value is on record as “full agonist activity” and the maximum response (Emax) came to 128 ± 21%.

For `CC[C@H](C)[C@@H]1NC(=O)[C@H](CCCNC(=N)N)NC(=O)[C@H](CCCNC(=N)N)NC(=O)[C@H](CC(C)C)NC(=O)[C@H](Cc2ccccc2)NC(=O)CNC(=O)CNC(=O)[C@H](Cc2ccc(O)cc2)NC(=O)[C@H]([C@@H](C)O)NC(=O)[C@@H]2CSSC[C@@H]3NC(=O)[C@H]([C@@H](C)O)NC(=O)CNC(=O)CNC(=O)[C@H](C(C)C)NC(=O)[C@@H]4CSSC[C@H](NC(=O)[C@H]([C@@H](C)O)NC(=O)[C@H](CSSC[C@H](NC(=O)[C@H](C(C)C)NC(=O)[C@H](CCCCN)NC(=O)[C@H](CC(C)C)NC(=O)[C@H](CCCCN)NC(=O)[C@@H]5CCCN5C(=O)[C@H](CCCNC(=N)N)NC1=O)C(=O)NCC(=O)N[C@@H](CCC(N)=O)C(=O)N[C@@H]([C@@H](C)O)C(=O)N4)NC(=O)CNC(=O)[C@@H]1CCCN1C(=O)[C@H]([C@@H](C)O)NC(=O)[C@H](CC(N)=O)NC3=O)C(=O)N[C@@H](CO)C(=O)N[C@@H](Cc1c[nH]c3ccccc13)C(=O)N1CCC[C@H]1C(=O)N[C@@H](C(C)C)C(=O)N2` [ΔL6[E3Q]kB1-dynA] (cyclo(CGQTCVGGTCNTPGCTCSWPVCTYGGFLRRIRPKLKV); disulfide 1-15, 5-17, 10-22 (inferred); ring closure inferred), the Ki on κ-opioid receptor (KOR) [2] is 0.0062 ± 0.0042 µM. On κ-opioid receptor (KOR) [1], the response was half-maximal at 0.0688 ± 0.0231 µM (EC50), the “agonist activity” value is on record as “full agonist activity” and the Emax is 139 ± 20.2%. Also, the “trypsin inhibition (in words)” value in assay [3] is reported as “No trypsin”.

Take “VCGQTCVGGTCNTPGCTCSWPVCT (also: bicyclic or more (positions not given here)) [∆L6[E3Q]kB1]”: the “trypsin inhibition (in words)” value in assay [3] is reported as “No trypsin”.

“c-GCTKSIPPICGVCGQTCVGGTCNTPGCTCSWPVCT (bicyclic or more) [ΔL6[E3Q]kB1-SFTI]”: the inhibition of trypsin in assay [3] (n=3) is given as about 45%.

What is called Emax is the maximal effect, on the per cent scale that the assay sets. What is called Ki is a measure of affinity in units of concentration, obtained from inhibition or displacement. The low end stands for tighter binding, the high end for weaker binding. For orientation: EC50 means the concentration giving half of the maximal effect. Low readings indicate a more potent agent, high ones a less potent agent.
